# Measured values published in PMC4336329 (PLoS ONE, 2015).
# Hit rate of the full screen: of about 310,000 compounds, about 14,000 (4.5%) showed an effect of 50% or more. Effects have a minus sign here. The list shows a part of the results.
# Target: human ether-à-go-go-related gene (hERG) potassium channel (human, UniProt Q12809)
# Assay: primary screen, population patch clamp on CHO cells stably expressing hERG
# 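Further: peak tail current of the secondary pulse compared with the same well before compound.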
# Sequence of human ether-à-go-go-related gene (hERG) potassium channel (Q12809 whole entry, looked up): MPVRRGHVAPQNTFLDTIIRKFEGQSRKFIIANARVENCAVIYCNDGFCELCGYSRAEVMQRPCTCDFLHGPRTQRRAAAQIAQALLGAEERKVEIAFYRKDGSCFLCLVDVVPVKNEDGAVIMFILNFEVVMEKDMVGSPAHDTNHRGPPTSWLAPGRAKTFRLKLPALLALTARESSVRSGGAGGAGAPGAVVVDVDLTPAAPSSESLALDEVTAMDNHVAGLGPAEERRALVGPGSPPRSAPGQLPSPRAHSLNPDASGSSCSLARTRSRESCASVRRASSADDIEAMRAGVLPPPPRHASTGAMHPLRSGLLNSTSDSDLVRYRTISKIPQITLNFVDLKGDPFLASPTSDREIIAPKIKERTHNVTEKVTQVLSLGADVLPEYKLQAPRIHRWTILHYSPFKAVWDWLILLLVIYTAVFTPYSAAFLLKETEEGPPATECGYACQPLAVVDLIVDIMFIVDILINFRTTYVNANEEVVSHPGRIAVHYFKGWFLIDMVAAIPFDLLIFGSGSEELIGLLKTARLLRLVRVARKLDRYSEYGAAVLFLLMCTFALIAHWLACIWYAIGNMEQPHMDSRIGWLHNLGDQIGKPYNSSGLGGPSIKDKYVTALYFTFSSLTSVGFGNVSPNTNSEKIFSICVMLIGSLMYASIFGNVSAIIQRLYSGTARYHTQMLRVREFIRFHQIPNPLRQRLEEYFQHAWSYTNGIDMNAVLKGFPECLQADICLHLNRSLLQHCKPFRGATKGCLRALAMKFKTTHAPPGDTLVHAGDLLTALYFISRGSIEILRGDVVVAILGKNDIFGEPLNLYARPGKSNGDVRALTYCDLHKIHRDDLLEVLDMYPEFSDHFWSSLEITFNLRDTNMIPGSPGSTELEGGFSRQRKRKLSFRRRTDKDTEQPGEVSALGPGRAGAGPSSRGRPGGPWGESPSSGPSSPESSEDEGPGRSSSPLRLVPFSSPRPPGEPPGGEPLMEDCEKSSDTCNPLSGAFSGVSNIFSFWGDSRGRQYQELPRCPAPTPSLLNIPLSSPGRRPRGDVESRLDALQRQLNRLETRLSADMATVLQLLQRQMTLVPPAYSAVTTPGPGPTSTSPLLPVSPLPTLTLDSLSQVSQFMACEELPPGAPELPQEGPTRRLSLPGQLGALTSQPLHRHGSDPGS
row,Compound,"hERG current change (%, negative = inhibition) at 10uM [%]"
1,Cc1ccc(N2CC(C(=O)N3CCOCC3)CC2=O)cc1Cl (stereo not shown),5.47
2,Cc1ccc(S(=O)(=O)NC2CC2)s1,2.73
3,O=C(Cc1c(F)cccc1Cl)Nc1ccccc1C(=O)N1CCCCC1,-3.39
4,Cc1ccc(S(=O)(=O)N2CCCCC2)cc1NC(=O)COC(=O)c1ccc(=O)[nH]c1,3.23
5,Cc1ccnc(SCCn2c(N3CCN(Cc4ccccc4)CC3)nc3c2c(=O)[nH]c(=O)n3C)n1,-36.5
6,CCOC(=O)Cn1c(=O)oc2cc(S(=O)(=O)N(CCN(C)C)Cc3ccccc3)ccc21,-25.8
7,Cl.O=C(CCN1CCCC1)Nc1ccccc1,4.69
8,COc1ccccc1Oc1c(C)oc2cc(OC(=O)c3ccco3)ccc2c1=O,-19.5
9,CCc1nnc(SCC(=O)Nc2ccc(F)cc2)o1,10.3
10,C=CCOc1ccc(/C=N/O)cc1Cl,4.43
11,O=C1C=C(NCc2ccc(Cl)c(Cl)c2)CC1,-17.5
12,O=C(NNS(=O)(=O)c1ccccc1[N+](=O)[O-])c1cc2ccccc2cc1O,-10.9
13,COc1ccccc1/C=C(/CC(=O)NCc1ccc2c(c1)OCO2)c1nc2ccccc2s1,8.8
14,O=C(NCCc1ccccc1)c1ccc(-c2ccccc2C(F)(F)F)o1,-10.9
15,COc1ccc(N2CCN(CC(=O)NC(=O)NCc3ccccc3)CC2)cc1,10.4
16,N#Cc1c(-n2cccc2C=O)sc2c1CCCC2,-12.9
17,COC(=O)C1=C(CCc2ccccc2)NC(=O)NC1c1ccc(Cl)cc1 (stereo not shown),-9.59
18,O=C(NC1CN2CCC1CC2)c1cccc(Cl)c1 (stereo not shown),3.72
19,CN(C)S(=O)(=O)c1cccc(CNCC2COc3ccccc3O2)c1.O=C(O)C(=O)O (stereo not shown),-13.8
20,CNC(=S)Nc1cc(Cl)ccc1Oc1ccccc1,-6.86
21,COc1ccc([C@H]2[C@H](C(=O)C(C)(C)C)N3N=Cc4ccccc4C3[C@]23N=C(c2ccccc2)OC3=O)cc1OC (stereo partly shown),2.55
22,CC1=NCCN1CCNC(=O)Nc1ccc(F)cc1,7.18
23,c1ccc(N2CCN(Cc3cn4cccnc4n3)CC2)cc1,11.2
24,CCC(=O)N1CCc2cc(S(=O)(=O)CCC(=O)NCc3ccc(OC)cc3)ccc21,8.16
25,CCCCN=Cc1sc2ccc(OCC)cc2c1O,3.66
26,O=C(NC(=S)N1CCOCC1)c1cc2ccccc2o1,12.7
27,Cc1cccc(NC(=O)CSc2nnc(C)c(=O)n2N)c1C,9.09
28,CC1(OC(=O)c2ccc(Cl)nc2)C(=O)C=C2C=C(c3ccsc3)OC=C2C1=O (stereo not shown),9.98

row,Compound,"hERG current change (%, negative = inhibition) at 10uM [%]"
1,COc1ccc(NC(=O)CN(C)C(=O)c2cc3c(cc2Cl)N2CCCCCC2=NS3(=O)=O)cc1,17.3
2,NC(=O)c1noc(C(=O)N(CC(=O)NC2CCCC2)Cc2ccc3c(c2)OCO3)c1N,-7.94
3,O=C(NN1C(=O)C2C(c3ccccc3)C=CC(c3ccccc3)C2C1=O)c1ccccc1 (stereo not shown),10.2
4,CCOC(=O)N1CCN(C(=O)c2ccc(CN(c3ccc(C)c(C)c3)S(C)(=O)=O)cc2)CC1,-18
5,CCC(C)NCCOCCOc1ccc(Cl)c2ccccc12.O=C(O)C(=O)O (stereo not shown),-32.2
6,CSCC[C@H](NC(=O)[C@H](Cc1ccccc1)n1c(=O)[nH]c2ccccc2c1=O)C(=O)N[C@@H](Cc1ccccc1)C(=O)O,17
7,COc1ccc(CNC(=S)N/N=C(\C)c2ccc(OC)cc2)cc1,2.51
8,COc1ccc(CN2CCC(N3CC(C)OC(C)C3)CC2)c(OC)c1.O=C(O)C(=O)O (stereo not shown),-1.98
9,CCc1cc(=O)oc2cc(OCC(=O)N3CCC(C(=O)O)CC3)ccc12,7.74
10,CCOC(=O)Cn1c(C)c(Br)c(COC)c(C#N)c1=O,5.71
11,O=C(/C=C/c1cccc([N+](=O)[O-])c1)NCCSCc1ccc(Cl)cc1,-13.1
12,CCOC(=O)C1CCN(C(=O)C2CCC(=O)N(CC3CCCCC3)C2)CC1 (stereo not shown),0.313
13,CSc1oc(-c2ccco2)nc1S(=O)(=O)c1ccc(C)cc1,11.6
14,CCOc1ccc(C(=O)NC(=S)Nc2ccccc2N2CCC(C)CC2)cc1[N+](=O)[O-],5.75
15,COc1cccc(C2=NN(C(C)=O)C(c3cccs3)C2)c1 (stereo not shown),10.7
16,C/C(=N/NC(=O)CNC(=O)Cc1ccc(Cl)cc1)c1ccco1,4.04
17,O=C1CNC(=S)N1CCc1ccccc1Cl,7.27
18,COc1ccc(-c2c(C(F)(F)F)oc3cc(OCC(=O)Nc4ccccc4C(F)(F)F)ccc3c2=O)cc1OC,4.91
19,C=Cn1cc[n+](CC(=O)c2ccc(-c3ccccc3)cc2)c1.[Br-],7.91
20,O=C(Cn1c(-c2ccccc2Cl)nc2ccccc21)Nc1cccc(Cl)c1,0.898
21,Cc1ccnc(S(=O)(=O)Cc2ccc([N+](=O)[O-])cc2)n1,20
22,CS(=O)(=O)c1ccc2nc(NC(=O)Nc3cccc(Cl)c3)sc2c1,-5.84
23,CCOc1ccc(-c2ccc(SCC)nn2)cc1,22.8
24,O=C(c1ccc(Cl)c(Cl)c1)c1cnc(Nc2ccccc2)s1,27.5
25,CN(C)S(=O)(=O)c1cccc(C(=O)N2CCN(Cc3ccccc3)CC2)c1,6.78
26,COc1ccc(C(=O)[C@H]2[C@H]3C(=O)N(c4ccc(C)cc4)C(=O)[C@H]3C3C=CC=NN32)cc1 (stereo partly shown),-6.9
27,CCO[C@@H]1OC(C(=O)NC2CC2)=C[C@H](c2csc3ccccc23)[C@H]1CCCO,-21.4
